{
  "source": "PubChem BioAssay AID1508624",
  "about": "(National Center for Advancing Translational Sciences (NCATS), 2021)",
  "note": "The campaign covered roughly 48,000 compounds. About 120 (0.25%) were called active. Inconclusive results (about 4%) are left out. The call rests on the fitted dose curve; in most records, active means well fitted activation curve with a large enough effect; inconclusive means small, poorly fitted or top-dose-only effect, or another doubt; inactive means no such curve, though single readings can be large or run the other way. The entries are a selection whose mix differs from that of the whole data set. The source gives no active or inactive call for entries shown without one.",
  "data": [
    {"assay": "Primary qHTS for Identification of Small Molecule Activators of Huntingtin-Antisense Promoter Activity; further: nearly all actives have a fitted effect of over 55% in size", "conditions": "HEK293 HTT-AS promoter firefly luciferase reporter, 24 h; activity change, positive = activation: at 57.5 µM (top of the series), percent change from vehicle, -100% = no light", "procedure,_shortened": "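HEK293 Fluc reporter, 2,500 cells/well, 24 h pre-culture; cpds up to 57.5 uM final, 24 h 37 degrees C; Dual-Glo, 10 min RT; normalized vehicle = 0%, zero RLU = -100%.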", "values": [
      {"compound": "COc1cc(NC(=O)CC2C(=O)N(c3cccc(C)c3)C(=O)N2Cc2cccs2)cc(OC)c1", "note": "(stereo unspecified)", "activity change, positive = activation": "-33.6%"},
      {"compound": "COc1ccc(-c2nc(SCC(=O)Nc3ccc4c(c3)OCCO4)c(-c3ccccc3)[nH]2)cc1", "activity change, positive = activation": "inactive: -7.96%"},
      {"compound": "CCOC(=O)/C(C#N)=C/c1ccc(-c2ccc(C)cc2)o1", "activity change, positive = activation": "62.5%"},
      {"compound": "CCOC(=O)c1cc(C)n(CC2CCC(C(=O)Nc3cc(OC)cc(OC)c3)CC2)c1C", "note": "(stereo unspecified)", "activity change, positive = activation": "-16.6%"},
      {"compound": "COc1ccc(CCN2C(=O)c3[nH]nc(-c4ccccc4O)c3C2c2ccccc2)cc1", "note": "(stereo unspecified)", "activity change, positive = activation": "inactive: -30.1%"},
      {"compound": "CCOc1ccc(CNC(=O)CCc2c(C)nn(-c3ccc(N4CCCCC4)nn3)c2C)cc1", "activity change, positive = activation": "-12.1%"},
      {"compound": "Cc1ccc(NC(=O)c2c(C)oc3ccc(O)c(CN4CCOCC4)c23)cc1", "activity change, positive = activation": "-10.9%"},
      {"compound": "Cc1ccc(OCCCn2c(-c3ccc(Cl)cc3)nc3ccccc3c2=O)cc1C", "activity change, positive = activation": "-6.23%"},
      {"compound": "CCc1cccc(NC(=O)CC(c2ccc(OC)cc2)N2Cc3ccccc3C2=O)c1", "note": "(stereo unspecified)", "activity change, positive = activation": "-27%"},
      {"compound": "Cc1oc(=O)oc1COC(=O)[C@@H]1N2C(=O)[C@@H](NC(=O)[C@H](N)c3ccccc3)[C@H]2SC1(C)C", "activity change, positive = activation": "inactive: -0.618%"},
      {"compound": "CCOC(=O)c1c(NC(=O)c2cc(-c3cccc(Cl)c3)on2)sc(C)c1C", "activity change, positive = activation": "-5.13%"},
      {"compound": "COc1ccccc1CNC(=O)CCc1c(C)c2cc3c(C)coc3cc2oc1=O", "activity change, positive = activation": "-3.2%"},
      {"compound": "CCOc1ccc2nc(Cl)c(C3CC(c4ccc(C)cc4)=NN3C(=O)CCC(=O)O)cc2c1", "note": "(stereo unspecified)", "activity change, positive = activation": "-7.09%"},
      {"compound": "Cc1c(Cl)cccc1NC(=O)CCS(=O)(=O)c1ccc2c(c1)CC(C)N2C(=O)C1CC1", "note": "(stereo unspecified)", "activity change, positive = activation": "-24.4%"},
      {"compound": "COc1cccc(-c2nnc(SCC(=O)N(C)C3CCCCC3)o2)c1", "activity change, positive = activation": "inactive: 0.954%"},
      {"compound": "COc1cccc(N2C(=O)C(CC(=O)Nc3cccc(F)c3)N(C3CCCC3)C2=O)c1", "note": "(stereo unspecified)", "activity change, positive = activation": "-14.4%"},
      {"compound": "Cc1nc2ccn(Cc3ccco3)c(=O)c2cc1C(=O)NCc1ccc(Cl)cc1", "activity change, positive = activation": "-14.6%"},
      {"compound": "CCCOc1ccc(C2C(=O)N(C3CCC(C)CC3)CC(=O)N2CCc2ccccc2)cc1OC", "note": "(stereo unspecified)", "activity change, positive = activation": "-10.6%"},
      {"compound": "Cc1ccc(NC(=O)/C=C\\C(=O)N(c2ccc(C(C)C)cc2)C(C(=O)NCc2ccco2)c2ccc(Cl)cc2)cc1", "note": "(stereo unspecified)", "activity change, positive = activation": "-39.2%"},
      {"compound": "CC1CCN(c2nn3c(=O)c(C(=O)NCCCOC(C)C)cnc3s2)CC1", "activity change, positive = activation": "4.83%"},
      {"compound": "CN(C)c1ccc(/C=C/c2nc(-c3ccccc3O)n(-c3ccccc3)n2)cc1", "activity change, positive = activation": "-6.23%"},
      {"compound": "COc1ccc(NC(=O)c2c(C)oc3ccc(O)c(CN4CCC(C)CC4)c23)cc1Cl", "activity change, positive = activation": "-24.6%"},
      {"compound": "O=C(CSc1nc2ccccc2nc1Cc1ccc(Cl)cc1)Nc1ccc2c(c1)OCO2", "activity change, positive = activation": "6.06%"},
      {"compound": "COCCNC(=O)c1cnc2sc(N3CCCCC3)nn2c1=O", "activity change, positive = activation": "-4.63%"},
      {"compound": "O=c1c(-c2ccc(Cl)cc2)c(C(F)(F)F)oc2c(CN3CCCCC3)c(O)ccc12", "activity change, positive = activation": "-10.8%"},
      {"compound": "Cc1ccc(NS(=O)(=O)c2ccc3c(c2)CC(C)N3C(=O)C2CCC2)cc1Cl", "note": "(stereo unspecified)", "activity change, positive = activation": "-42.7%"},
      {"compound": "CCOc1ccc(CCNC(=O)c2cnc3sc(N4CCC(C)CC4)nn3c2=O)cc1", "activity change, positive = activation": "6.79%"},
      {"compound": "O=C(NCc1ccc(Cl)cc1)C1CCN(S(=O)(=O)Cc2ccccc2)CC1", "activity change, positive = activation": "-0.597%"},
      {"compound": "CN(Cc1ccccc1)C(=O)c1cc(-c2cccc(Cl)c2)on1", "activity change, positive = activation": "3.18%"},
      {"compound": "CC(C)Oc1ccc(CNC(=O)C2CCCCN2S(=O)(=O)c2ccc(F)cc2)cc1", "note": "(stereo unspecified)", "activity change, positive = activation": "-16.8%"},
      {"compound": "CCOc1ccc(CCNC(=O)c2cccc(-n3c(C)nc4cccnc43)c2C)cc1", "activity change, positive = activation": "inactive: -24.2%"},
      {"compound": "CCOCCCNC(=O)c1cnc2sc(N3CCCCC3)nn2c1=O", "activity change, positive = activation": "5.77%"},
      {"compound": "Cc1c(CCC(=O)NCCc2ccc(Cl)cc2)c(=O)oc2c(C)c(O)ccc12", "activity change, positive = activation": "5.68%"},
      {"compound": "Cc1cc(C)n(C(C)CC(=O)Nc2cccc(C(F)(F)F)c2)n1", "note": "(stereo unspecified)", "activity change, positive = activation": "inactive: -18.2%"},
      {"compound": "COc1ccc(S(=O)(=O)NCC(c2ccco2)S(=O)(=O)c2ccc(C)cc2)cc1F", "note": "(stereo unspecified)", "activity change, positive = activation": "inactive: -8.49%"},
      {"compound": "CCOC(=O)c1ccc(NC(=O)CC2C(=O)N(c3ccc(F)cc3)C(=O)N2Cc2cccnc2)cc1", "note": "(stereo unspecified)", "activity change, positive = activation": "-9.25%"},
      {"compound": "Cc1c(CCC(=O)NCCc2ccccc2)c(=O)oc2c(C)c(O)ccc12", "activity change, positive = activation": "15.9%"},
      {"compound": "O=C(NCc1ccc(Cl)cc1)c1cnc2sc(N3CCOCC3)nn2c1=O", "activity change, positive = activation": "-3.34%"},
      {"compound": "COc1ccc(NC(c2nnc(-c3ccccc3)o2)c2ccccc2F)cc1Cl", "note": "(stereo unspecified)", "activity change, positive = activation": "-11.5%"},
      {"compound": "Cc1ccc(-c2cc(C(=O)Nc3cc([N+](=O)[O-])ccc3C)no2)cc1F", "activity change, positive = activation": "3.71%"},
      {"compound": "O=C(NCCc1ccc(Cl)cc1)c1cnc2sc(N3CCOCC3)nn2c1=O", "activity change, positive = activation": "-1.03%"},
      {"compound": "COc1cc(OC)c(Nc2nc3ccccc3c3nncn23)cc1Cl", "activity change, positive = activation": "-0.685%"},
      {"compound": "O=C(NCc1ccccc1Cl)c1ccc2c(c1)NC(=O)C(CS(=O)(=O)Cc1ccc(F)cc1Cl)N2", "note": "(stereo unspecified)", "activity change, positive = activation": "-24.6%"},
      {"compound": "COc1cccc(-c2cc(C(=O)Nc3c(C)nn(Cc4ccccc4Cl)c3C)no2)c1", "activity change, positive = activation": "-25.7%"},
      {"compound": "Cc1cc(C)c(S(=O)(=O)Nc2ccc(-c3ccc(N4CCC(C)CC4)nn3)cc2)cc1C", "activity change, positive = activation": "3.84%"},
      {"compound": "Cc1ccccc1C(=O)Nc1cc2c(cc1N1CCOCC1)n(C)c(=O)n2C", "activity change, positive = activation": "8.34%"}
    ]}
  ]
}
